Measurements as given in PubChem BioAssay AID1030 (National Center for Advancing Translational Sciences (NCATS), 2008).
Screen size: about 220,000 compounds; about 16,000 (7.3%) were called active. Inconclusive results, whose numbers are uncertain, are shown with a selection of clear calls. Calls follow the shape of the dose curve; as a rule, active = well fitted inhibition curve with a large enough effect (not every such curve was filed as active); inconclusive = small, poorly fitted or top-dose-only effect, or another doubt; inactive = no such curve, though single readings can be large or run the other way. No potency is given beside an inconclusive call; the fits are too rough.
Potency is read from the fitted curve at half-maximal effect; tags tell the direction and shape of the fitted curve.

The compounds below were run against Aldehyde dehydrogenase 1A1 (Homo sapiens) (UniProt P00352) (assay: qHTS Assay for Inhibitors of Aldehyde Dehydrogenase 1 (ALDH1A1)). Conditions: Purified ALDH1A1, NADH fluorescence, propionaldehyde substrate; series mostly up to 75.3 µM.
Sequence of UniProt P00352 (P00352 whole entry, looked up): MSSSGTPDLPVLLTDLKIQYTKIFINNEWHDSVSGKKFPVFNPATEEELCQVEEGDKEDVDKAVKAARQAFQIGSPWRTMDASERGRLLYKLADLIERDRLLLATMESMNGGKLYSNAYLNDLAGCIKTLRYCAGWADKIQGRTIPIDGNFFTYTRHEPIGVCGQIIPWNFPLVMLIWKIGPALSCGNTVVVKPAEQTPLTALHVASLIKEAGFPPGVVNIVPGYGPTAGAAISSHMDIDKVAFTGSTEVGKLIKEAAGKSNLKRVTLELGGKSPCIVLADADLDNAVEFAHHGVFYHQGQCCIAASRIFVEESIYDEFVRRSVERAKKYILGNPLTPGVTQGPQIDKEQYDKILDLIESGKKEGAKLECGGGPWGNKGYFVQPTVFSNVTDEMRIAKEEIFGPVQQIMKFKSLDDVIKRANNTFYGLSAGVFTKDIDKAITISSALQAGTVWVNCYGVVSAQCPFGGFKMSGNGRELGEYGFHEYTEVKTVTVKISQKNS
With `COC(=O)Cc1nc(Nc2ccccc2)sc1C` the Potency was “inactive”.
`CCOc1cc(C=O)cc(Br)c1OCC(N)=O` was tested, and the Potency was active: 7.94 µM.
`CN(C(=O)COC(=O)c1ccc(Cl)c(N)c1)c1ccccc1` was tested, and the Potency was inconclusive [inhibitor, single point].
In the case of `CSc1nncc(/C(C)=N\Nc2ccccc2C)n1`, the Potency is reported as inconclusive [inhibitor, single point].
With `Cn1nc(C(=O)Nc2ccc(S(=O)(=O)N3CCOCC3)cc2)c2ccccc2c1=O` the Potency was “inactive”.
`COc1ccccc1CNc1nc(-c2ccoc2)nc2ccccc12` was tested, and the Potency was inconclusive [inhibitor, single point].
In the case of `COc1ccc(C(=O)N/N=C/c2ccc(OC)c(CN3CCc4cc(OC)c(OC)cc4C3C)c2)cc1` (stereo unspecified), the Potency is reported as inconclusive [inhibitor, single point].
`C=CCn1c(SCCC)nc2sc3c(c2c1=O)CCc1ccccc1-3` was tested, and the Potency was “inactive”.
In the case of `CC12CCCc3c(O)cc(=O)n(c31)-c1ccccc12` (stereo unspecified), the Potency is reported as “inactive”.
`O=C(CCN1CCN(c2ccccc2)CC1)N/N=C/c1ccc([N+](=O)[O-])o1` was tested, and the Potency was “inactive”.
For `O=C(CSc1nnc(-c2ccccn2)n1Cc1ccco1)c1ccccc1`, the Potency was “inactive”.
With `Cc1ccc(S(=O)(=O)CCC(=O)OCC(=O)Nc2ncc(Cl)cc2Cl)cc1` the Potency was inconclusive [inhibitor, single point].
`c1ccc(Cn2c(CSc3nnnn3-c3ccccc3)nc3ccccc32)cc1` was tested, and the Potency was inconclusive [inhibitor, partial curve].
In the case of `CCCCCCCc1n[nH]c(=S)n1Cc1ccccc1`, the Potency is reported as inconclusive [inhibitor, partial curve].
For `CCOc1ccc(C2C(C(=O)c3cccs3)=C(O)C(=O)N2Cc2cccnc2)cc1OC` (stereo unspecified), the Potency was inconclusive [inhibitor, single point].
In the case of `CCCCn1nc2cc(C(=O)NCC34CC5CC(CC(C5)C3)C4)ccc2c1OCC`, the Potency is reported as inconclusive [inhibitor, single point].
For `CC(C)Oc1ccc(OCCNC2CCCC2)cc1`, the Potency was inconclusive [inhibitor, single point].
For `Cc1nn(C)c(C)c1C1Nc2ccccc2C(=O)N1O` (stereo unspecified), the Potency was inconclusive [inhibitor, single point].
For `CCCCNC(=O)C(c1ccc(-c2ccccc2)cc1)N(CCN1CCOCC1)C(=O)CCCCCN1C(=O)NC(c2ccc([N+](=O)[O-])cc2)C(C(=O)OCc2ccccc2)=C1C` (stereo unspecified), the Potency was inconclusive [inhibitor, single point].
For `Cc1cc(NC(=O)C2CCN(S(=O)(=O)c3cnc[nH]3)CC2)ccc1Br`, the Potency was “inactive”.
For `COc1cccc(N=CC2=C(O)CC(C)(C)CC2=O)c1`, the Potency was active: 8.91 µM.
For `COc1ccc(CNC(=O)C/C(C)=N/NC(=O)C(c2ccccc2)c2ccccc2)cc1`, the Potency was active: 22.4 µM.
`Cc1ccc(NC(=O)C(NC2CCCc3ccccc32)c2ccccc2)c([N+](=O)[O-])c1` (stereo unspecified) was tested, and the Potency was inconclusive [inhibitor, single point].
`CC(=O)c1c(NCCc2ccccc2)cc(C)oc1=O` was tested, and the Potency was inconclusive [inhibitor, partial curve].
In the case of `O=C(NCc1ccccc1Cl)c1ccc(Br)o1`, the Potency is reported as inconclusive [inhibitor, single point].
With `COc1ccc(CCNC(=O)CSc2nn(-c3ccccc3)c(=S)s2)cc1OC` the Potency was “inactive”.
For `N#Cc1cccc(-c2nc(NCc3ccccc3)c3ccccc3n2)c1`, the Potency was inconclusive [inhibitor, partial curve].
With `COc1ccc(NC(=O)CS(=O)CC(=O)Nc2cc(Cl)ccc2OC)cc1` (stereo unspecified) the Potency was “inactive”.
For `COc1ccc(CNc2ncnc3ccc(-c4ccccc4OC)cc23)c(OC)c1`, the Potency was inconclusive [inhibitor, single point].
`CC1Cc2ccccc2N1C(=O)CSc1nnnn1-c1ccc2c(c1)OCCO2` (stereo unspecified) was tested, and the Potency was inconclusive [inhibitor, partial curve].
For `O=C1CSC(c2cn(-c3ccccc3)nc2-c2ccc3c(c2)OCCO3)N1CCN1CCOCC1` (stereo unspecified), the Potency was inconclusive [inhibitor, single point].
With `Cc1cc(=O)oc2cc(NC(=O)C3CCCC3)ccc12` the Potency was inconclusive [inhibitor, partial curve].
For `CCOc1cc(/C=N/NC(=O)Cn2nc([N+](=O)[O-])cc2C)cc(Br)c1OCc1ccccc1F`, the Potency was “inactive”.
With `O=C(NCc1ccco1)c1ccccc1NS(=O)(=O)c1ccc(Br)s1` the Potency was inconclusive [inhibitor, single point].
In the case of `CCOC(=O)c1sc(=S)sc1SCc1cccc(C(F)(F)F)c1`, the Potency is reported as inconclusive [inhibitor, single point].
In the case of `O=C(Nc1ccc(S(=O)(=O)N2CCN(c3ccccc3)CC2)cc1)c1cccs1`, the Potency is reported as inconclusive [inhibitor, single point].
With `COc1cccc(-n2c(SC)nnc2-c2cnccn2)c1` the Potency was “inactive”.
With `CCOC(=O)C1=C(N)Oc2cc(O)ccc2C1c1ccc([N+](=O)[O-])cc1` (stereo unspecified) the Potency was inconclusive [inhibitor, single point].
For `C=CCn1c(SCc2ccc3c(c2)OCO3)nc2scc(-c3ccco3)c2c1=O`, the Potency was inconclusive [inhibitor, partial curve].
For `CCCCOc1ccc(/C=C/C(=O)NC2=Nc3ccccc3NC(C)=C2C(=O)OCC)cc1OC`, the Potency was inconclusive [inhibitor, single point].
`Cc1cc2nnn(-c3nnc(-c4ccccc4)c4ccccc34)c2cc1C` was tested, and the Potency was “inactive”.
With `CCN1CCN(C(=S)Nc2ccc(C(C)=O)cc2)CC1` the Potency was “inactive”.
`O=C(CSc1nnc2c(n1)[nH]c1ccc(F)cc12)N1CCOCC1` was tested, and the Potency was “inactive”.
`COc1ccc(N(CC(O)Cn2cnc3ccccc32)S(=O)(=O)c2ccc(C)cc2)cc1` (stereo unspecified) was tested, and the Potency was inconclusive [inhibitor, partial curve].
With `O=C(CN(Cc1ccco1)C(=O)c1ccccc1)Nc1ccc(Cl)c(Cl)c1` the Potency was inconclusive [inhibitor, single point].
With `CN1CCN(C(=O)c2ccc(Cl)c(S(=O)(=O)N3CCCCC3)c2)CC1` the Potency was inconclusive [inhibitor, single point].
In the case of `CCOC(=O)c1c(C)[nH]c(C=O)c1Cc1cccc(Cl)c1`, the Potency is reported as inconclusive [inhibitor, single point].
`CCOC(=O)/C(=C/c1cn(C)c2ccccc12)NC(=O)c1ccccc1` was tested, and the Potency was “inactive”.
`COc1cc2c(C(=O)OCCN(C)C)c(CSc3ccccc3)n(C)c2cc1Br` was tested, and the Potency was “inactive”.
For `Cc1ccc(Cn2c(N)c(S(=O)(=O)c3cccs3)c3nc4ccccc4nc32)cc1`, the Potency was inconclusive [inhibitor, partial curve].
With `Cc1nn(-c2ccccc2)c2sc(C(=O)O)cc12` the Potency was inconclusive [inhibitor, single point].
In the case of `CCOC(=O)c1[nH]c2ccccc2c1NC(=S)Nc1ccccc1C`, the Potency is reported as inconclusive [inhibitor, single point].
`O=C(c1ccc(F)cc1)N1CCN(c2cc(N3CCCCC3)c(F)cc2[N+](=O)[O-])CC1` was tested, and the Potency was “inactive”.
In the case of `Cc1noc(C)c1CSc1nc2ccccc2c(=O)n1-c1ccc(Cl)cc1`, the Potency is reported as “inactive”.
`O=C(/C=C/c1ccc(O)cc1)c1ccccc1O` was tested, and the Potency was active: 20 µM.
For `CC(=O)NC(Cc1ccc(F)cc1)C(=O)NC1CCN(c2ncccc2[N+](=O)[O-])CC1` (stereo unspecified), the Potency was “inactive”.
With `CC(C(=O)NCCCc1ccccc1)c1ccc([N+](=O)[O-])cc1` (stereo unspecified) the Potency was inconclusive [inhibitor, single point].
`CC(C)CN(C(=O)CSc1nnc2ccccn12)c1c(N)n(CC(C)C)c(=O)[nH]c1=O` was tested, and the Potency was inconclusive [inhibitor, single point].
`C=C(C)Cn1c(C)cc(C)c(S(=O)(=O)c2ccccc2C)c1=O` was tested, and the Potency was inconclusive [inhibitor, single point].
With `O=C(CCc1nc2ccccc2c(=O)[nH]1)OCC(=O)N1CCN(S(=O)(=O)c2ccccc2)CC1` the Potency was “inactive”.
With `CNc1oc(-c2ccc(Cl)cc2)nc1P(=O)(c1ccccc1)c1ccccc1` the Potency was inconclusive [inhibitor, partial curve].
In the case of `CCSc1nnc(NC(=O)CN2C(=O)C3CC=CCC3C2=O)s1` (stereo unspecified), the Potency is reported as “inactive”.
With `Cn1c(-n2c(CCN3C(=O)c4ccccc4C3=O)nc3ccccc3c2=O)nc2ccccc21` the Potency was inconclusive [inhibitor, single point].
`COc1cc2[nH]c(=S)nc(NCCCOC(C)C)c2cc1OC` was tested, and the Potency was inconclusive [inhibitor, single point].
In the case of `COc1ccc(C(=O)N/C(N)=N/c2nc3ccccc3o2)cc1`, the Potency is reported as “inactive”.
For `Cc1cccc(-n2c(SCC(=O)N3CCCC3)nc3n[nH]c(C)c3c2=N)c1`, the Potency was inconclusive [inhibitor, single point].
`COc1ccc(OC)c(N/C=C2/CCCCC2=O)c1` was tested, and the Potency was inconclusive [inhibitor, partial curve].
In the case of `Cc1cc(C)c2c(n1)nn1c(NCCCn3ccnc3)cc(C)nc21`, the Potency is reported as inconclusive [inhibitor, partial curve].
With `CCOC(=O)c1nnc(-c2ccccc2)nc1N1CCSCC1` the Potency was “inactive”.
With `CCOC(=O)c1c(NC(=S)Nc2ccccc2)sc2c1CCN(CCc1ccccc1)C2` the Potency was inconclusive [inhibitor, partial curve].
With `CCOC(=O)c1cc(-c2ccc(Cl)cc2)nc2c1c(C)nn2CCC#N` the Potency was inconclusive [inhibitor, partial curve].
